# Test results: article PMC4336329 (PLoS ONE, 2015)
# Out of some 310,000 compounds screened, about 14,000 (4.5%) showed an effect of 50% or more. The effect is printed as a negative number. The list shows a part of the results.
# Target: human ether-à-go-go-related gene (hERG) potassium channel (human, UniProt Q12809)
# Assay: primary screen, population patch clamp on CHO cells stably expressing hERG
# 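Also: peak tail current of the secondary pulse compared with the same well before compound.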
# human ether-à-go-go-related gene (hERG) potassium channel, sequence (Q12809 whole entry, looked up): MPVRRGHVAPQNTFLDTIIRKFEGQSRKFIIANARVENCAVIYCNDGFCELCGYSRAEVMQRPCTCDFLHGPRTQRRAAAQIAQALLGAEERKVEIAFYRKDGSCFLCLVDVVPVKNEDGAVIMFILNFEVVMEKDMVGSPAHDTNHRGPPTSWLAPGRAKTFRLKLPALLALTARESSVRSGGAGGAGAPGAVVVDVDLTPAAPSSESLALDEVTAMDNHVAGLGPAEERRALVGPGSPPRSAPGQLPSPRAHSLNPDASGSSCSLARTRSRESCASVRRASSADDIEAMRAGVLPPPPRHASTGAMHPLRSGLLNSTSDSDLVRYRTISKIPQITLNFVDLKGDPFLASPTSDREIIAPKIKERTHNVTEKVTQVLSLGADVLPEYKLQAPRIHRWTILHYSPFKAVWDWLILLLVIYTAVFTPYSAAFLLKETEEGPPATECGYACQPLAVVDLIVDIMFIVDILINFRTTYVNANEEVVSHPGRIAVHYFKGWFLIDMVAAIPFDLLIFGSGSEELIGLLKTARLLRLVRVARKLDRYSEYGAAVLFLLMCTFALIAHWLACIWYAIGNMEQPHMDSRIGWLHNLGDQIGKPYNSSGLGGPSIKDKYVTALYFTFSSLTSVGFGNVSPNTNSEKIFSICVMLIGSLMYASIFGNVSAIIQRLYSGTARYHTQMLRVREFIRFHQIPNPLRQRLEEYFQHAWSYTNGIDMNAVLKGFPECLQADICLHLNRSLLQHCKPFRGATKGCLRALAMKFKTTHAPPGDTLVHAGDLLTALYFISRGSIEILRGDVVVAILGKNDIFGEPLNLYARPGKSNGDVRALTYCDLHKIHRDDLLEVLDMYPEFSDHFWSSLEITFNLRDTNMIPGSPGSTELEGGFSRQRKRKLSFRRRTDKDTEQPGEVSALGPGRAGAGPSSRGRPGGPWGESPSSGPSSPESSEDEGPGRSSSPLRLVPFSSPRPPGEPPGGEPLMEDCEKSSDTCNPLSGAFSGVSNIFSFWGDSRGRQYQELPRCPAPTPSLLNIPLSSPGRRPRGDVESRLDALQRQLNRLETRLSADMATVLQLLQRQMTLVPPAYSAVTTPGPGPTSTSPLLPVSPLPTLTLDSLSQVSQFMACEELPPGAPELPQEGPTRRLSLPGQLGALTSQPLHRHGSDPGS
row,Structure (SMILES),"hERG current change (%, negative = inhibition) at 10uM"
1,COc1cc(-c2nc(Cc3c(F)cccc3Cl)no2)cc(OC)c1OC,1.73%
2,O=c1cc(-c2ccccc2)[nH]c2cc(Cl)ccc12,5.47%
3,CC1(C)CC(NC(=O)c2ccncc2)CC(C)(C)N1O.Cl,14.6%
4,C=C1CCC2C(C)(C)[C@@H](O)CC[C@@]2(C)[C@@H]1COc1ccc2ccc(=O)oc2c1 (some centres unmarked),28.9%
5,COc1ccc(/C=C(/C(=O)NCc2ccccc2)c2ccccc2)cc1,-13.7%
6,COc1ccnc(CSC(N)=Nc2ccccc2OC)c1.Cl,-44.6%
7,C/C(CCC(C)C)=N\Nc1cc(C)c2ccccc2n1,-8.27%
8,Nc1oc2ccccc2c1C(=O)Cc1ccccc1O[C@@H]1O[C@H](CO)[C@@H](O)[C@H](O)[C@H]1O,21.9%
9,COc1cc(CNCc2ccccn2)ccc1OCc1ccc(Cl)cc1Cl.Cl,-58.1%
10,COc1ccc(SC[C@H](C)CN2CC[C@H](C(C)(C)C)CCC2=O)cc1,-7.41%
11,Cc1onc(-c2ccccc2Cl)c1C(=O)N(C)Cc1ccccc1,-3.37%
12,COc1ccc(C(=O)COC(=O)c2cccc(-n3cnnn3)c2)c(OC)c1,12.3%
13,CCOc1ccc(S(=O)(=O)N2CCC(C(=O)NCC(=O)Nc3cccc(Cl)c3C)CC2)cc1,-23.5%
14,Cc1ccc(Cn2c(C(C)Nc3nc(-c4ccc(C)cc4)cs3)nc3cc(Cl)c(Cl)cc32)cc1 (centres unmarked),-10.8%
15,Cc1cc(OCc2cc(C(=O)O)oc2C)c2c3c(c(=O)oc2c1)CCCC3,4.54%
16,CCOc1cc(C(=O)OCc2ccc(OC)cc2)ccc1OCC(=O)N1CCOCC1,-15.1%
17,CC(C)OCCCNC1=C(Cl)C(=O)c2ccccc2C1=O,-4.77%
18,COC(=O)c1c(-c2c(Cl)cccc2Cl)noc1C(=O)NN,4.26%
19,Cc1ccc(NC(=O)C(C)OC(=O)Cc2c[nH]c3ccccc23)cc1S(=O)(=O)N1CCOCC1 (centres unmarked),-7.86%
20,Cc1ccc(NC(=O)CN(C)CC(=O)Nc2ccc(F)c(F)c2F)c(Cl)c1,-2.02%
21,O=C(O)C1=C[C@H](c2coc3ccccc3c2=O)C[C@H](OCc2ccc(CO)cc2)O1,3.58%
22,CCOC(=O)c1cc(-c2ccc3c(c2)OCCO3)n[nH]1,20.3%

row,Structure (SMILES),"hERG current change (%, negative = inhibition) at 10uM"
1,Brc1ccc(-c2csc3[n+]2CCCCC3)cc1.[Br-],-6.25%
2,Cc1cc(Nc2ccccc2)nc2cc(O)ccc12,-11.5%
3,CC(=O)N1c2ccc(S(=O)(=O)N3CCCC3)cc2CC1C(=O)NCc1ccc(N(C)C)cc1 (centres unmarked),-3.65%
4,CC(=O)Nc1ccc(Oc2ccc([N+](=O)[O-])cc2Cl)cc1,-44.6%
5,COC(=O)c1cc(S(=O)(=O)N2c3ccccc3CC2C)cn1C (centres unmarked),8.19%
6,CC1=C(C(=O)NCCN2CCOCC2)C2(CCC(C)CC2)OC1=O (centres unmarked),14.9%
7,CCOC(=O)N1CCN(S(=O)(=O)CCNC(=O)c2ccccc2)CC1,16.8%
8,CCO/N=C/c1ccc(OC)c(Oc2nc(OC)cc(OC)n2)c1,-5.71%
9,Cc1cc(NC(=O)c2cc(-c3ccc(OC(C)C)cc3)nc3ccccc23)no1,22.7%
10,COc1cccc(/C(O)=C2/C(=O)C(=O)N(CCN3CCOCC3)C2c2cccs2)c1 (centres unmarked),3.96%
11,COC(=O)C1CC(c2ccc(Cl)cc2)=NO1 (centres unmarked),-4.69%
12,CC(=O)c1ccc(O)c(CSc2nncn2C)c1,-0.576%
13,COc1ccc(NC(=O)c2ccc(NC(=O)c3cccs3)cc2)cc1,11.2%
14,COc1ccc(F)cc1C1=CC(=O)C[C@H](c2ccc3c(c2)OCO3)C1,9.36%
15,CCC(=O)OC1CSc2nc3ccccc3n2C1 (centres unmarked),-12.3%
16,O=C(CCN1C(=O)COc2ccccc21)NCCN1CCN(c2cccc(Cl)c2)CC1,-56.5%
17,Cc1cc(C)cc(N2CC(c3nc4ccccc4n3C)CC2=O)c1 (centres unmarked),-10.8%
18,Clc1ccc(-c2nc(-c3cc4cc(Cl)ccc4o3)cs2)cc1,4.59%
19,CN1CCc2nc(SCc3ccc(Cl)cc3)c(C#N)c(-c3cccs3)c2C1,-66.2%
20,CNc1oc(-c2cccc3ccccc23)nc1C#N,-0.799%
21,COc1ccc(/C(C#N)=C/c2ccccn2)cc1,4.95%
22,S=c1nc(-c2ccco2)[nH][nH]1,19.1%
